Each structure is given as a SMILES string. Whole data set: some 110,000 compounds, median “z-score” near -0.1, cut for the highest 2% near 2. Some of the results follow. Activity calls are given as the source filed them.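 The calls were made as follows: active = z-score in the third read window above 3 or below -3; inactive = the rest.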

This assay concerns the target Metabotropic glutamate receptor 8 (Rattus norvegicus) (UniProt P70579). Put plainly: rat mGluR8 modulators via GIRK flux, primary screen, cell-based, thallium flux, HTS (AID 488969). As to conditions: HEK293 rat mGluR8, GIRK (G protein-gated inwardly rectifying potassium channel) thallium flux, FluoZin2; at 10 µM; stronger effect = higher value; submaximal glutamate (EC20) added with thallium.
Sequence of UniProt P70579 (P70579 whole entry, looked up): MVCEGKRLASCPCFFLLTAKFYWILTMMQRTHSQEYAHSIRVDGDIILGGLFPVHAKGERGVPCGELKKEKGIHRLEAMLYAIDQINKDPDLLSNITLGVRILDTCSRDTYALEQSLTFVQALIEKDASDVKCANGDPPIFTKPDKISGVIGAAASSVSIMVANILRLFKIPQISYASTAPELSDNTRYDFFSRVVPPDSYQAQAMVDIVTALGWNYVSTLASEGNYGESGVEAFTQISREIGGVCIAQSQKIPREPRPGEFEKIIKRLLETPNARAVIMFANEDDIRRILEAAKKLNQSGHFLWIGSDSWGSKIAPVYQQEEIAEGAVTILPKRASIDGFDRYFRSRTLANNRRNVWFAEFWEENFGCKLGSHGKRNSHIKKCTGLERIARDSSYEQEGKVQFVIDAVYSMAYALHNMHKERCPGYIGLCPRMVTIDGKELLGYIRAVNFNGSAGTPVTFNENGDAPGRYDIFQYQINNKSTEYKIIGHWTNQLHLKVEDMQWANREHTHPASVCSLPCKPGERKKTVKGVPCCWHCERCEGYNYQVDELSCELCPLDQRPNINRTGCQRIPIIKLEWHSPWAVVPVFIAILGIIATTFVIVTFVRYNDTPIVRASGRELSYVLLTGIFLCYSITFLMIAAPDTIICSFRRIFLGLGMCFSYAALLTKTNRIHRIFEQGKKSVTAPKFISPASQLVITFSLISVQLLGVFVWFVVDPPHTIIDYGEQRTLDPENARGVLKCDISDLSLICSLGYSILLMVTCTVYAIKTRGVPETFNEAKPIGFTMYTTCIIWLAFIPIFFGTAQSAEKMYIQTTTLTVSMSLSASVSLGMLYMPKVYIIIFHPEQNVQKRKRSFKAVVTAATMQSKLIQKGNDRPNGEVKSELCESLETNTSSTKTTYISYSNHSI
In turn, `Cc1ccc(OCC(=O)OCC(=O)Nc2sccc2C(N)=O)cc1C` gave a z-score of -0.496.
`COc1ccc(N(C(=O)Cc2cccs2)C(C(=O)NC2CCCCC2)c2cccn2C)cc1` (stereo unspecified) registered a z-score of -0.0427.
Molecule `CCOC(=O)CN(C(=O)CSc1nnc(Cc2ccccc2)n1-c1ccc(C)cc1)c1ccccc1` showed a z-score of -1.8.
`COC(=O)c1sc2ncccc2c1OCc1ccccc1Cl` showed a z-score of -0.392.
Turning to `N#Cc1ccc(/C=N/NC(=O)c2ccccc2F)cc1`, the z-score is -0.257.
With `COCCCNC(=O)CS(=O)(=O)Cc1nc(-c2cccc(OC)c2)oc1C` the figure was 0.565; with `O=C(NC1(O)C(=O)c2ccccc2C1=O)c1ccccc1`, 0.757.
With `C/C(=C\c1ccccc1)C(=O)Nc1cc(C)on1`, the z-score was 0.0238.
Regarding `CCc1ccc(NC(=O)CCc2nc3cccnc3n2Cc2ccc(OC)cc2)cc1`, the z-score is -0.122.
`Cn1c(=O)c2ncn(CC(=O)Nc3cccc(-c4nc5ccccc5s4)c3)c2n(C)c1=O` registered a z-score of -0.289.
Turning to `CCN1CCN(S(=O)(=O)c2ccc(S(=O)(=O)NCC3CCCO3)cc2)CC1` (stereo unspecified), the z-score was -0.183.
With `Cc1oc(C)c(C(=O)NCCCC(=O)O)c1C(=O)NCCCC(=O)O` the figure was 0.0315.
With `CCC(C(=O)O)N1C(=O)c2ccccc2C1=O` (stereo unspecified) the figure was -0.172; with `COc1ccc(S(=O)(=O)Nc2cccc(N(C)S(C)(=O)=O)c2)cc1C`, -0.158.
For the molecule `CCOC(=O)C1CCCN(C(=O)Nc2cccc(Cl)c2)C1` (stereo unspecified), the z-score is -0.426.
Take `CCOC(=O)c1c(NC(=O)CSc2nnc(CN3CCOCC3)n2C)sc2c1CCCC2`: the z-score was -1.78.
Regarding `CN(Cc1nc(-c2ccncc2)no1)S(=O)(=O)c1ccc(Cl)cc1`, the z-score was determined as 0.129.
For the molecule `O=C1N(Nc2ccccc2)C(c2ccc(Br)cc2)C12CCCC2` (stereo unspecified), the z-score was -0.256.
For the molecule `NS(=O)(=O)c1ccc(NC(=S)NCc2ccccc2)cc1`, the z-score turned out to be 0.272.
`CCOc1ccc(-c2cn(-c3cccc(SC)c3)c(=O)[nH]2)cc1` yielded a z-score of -0.18.
For the molecule `O=C1c2ccccc2C(Nc2ccc(-c3nc4ccccc4[nH]3)cc2)N1Cc1ccco1` (stereo unspecified), the z-score is -0.59.
Molecule `Cc1cc2[nH]c3ccccc3c2c(C)n1` returned a z-score of 0.416.
To `CCOC(=O)c1c(NC(=O)CSc2nc3cc(Cl)ccc3c(=O)n2Cc2ccco2)sc(C(=O)N(C)C)c1C` belongs 0.223; to `Cc1nc(C2CC(=O)OC23CCCCC3)cs1` (stereo unspecified), -1.25; to `CC1=Nc2ccccc2/C1=C\c1nc(-c2ccc(C(F)(F)F)cc2)oc1O`, 0.101.
`COc1ccc(O)c(/C=N/NC(=O)CSc2nnc(C)n2-c2ccccc2)c1`: the z-score was -0.251.
Regarding `O=C(c1ccc(S(=O)(=O)Nc2ccc(F)cc2)cc1)N1CCN(C(=O)c2ccco2)CC1`, the z-score was -0.719.
With `Cc1nn(-c2cc(N3CCCCCC3)ccc2[N+](=O)[O-])c(=O)c2ccccc12` the figure was -1.08.
The molecule `COc1ccc(CN(CCCN2CCOCC2)C(=O)Nc2ccccc2)cc1OC` displayed a z-score of 0.0727.
`Cc1occc1C(=O)Nc1ccc2ccccc2c1`: the z-score was 2.19.
On to `Cc1ccccc1-c1nnc(SCC(=O)Nc2c(C)n(C)n(-c3ccccc3)c2=O)o1`, for which the z-score is -0.0211.
To `CCc1ccc(Nc2cc(C(=O)NCCCN3CCOCC3)c3ccccc3n2)cc1` belongs -0.0137; to `Cn1cnc([N+](=O)[O-])c1Nc1ccccc1O`, -0.0821; to `CCOc1ccccc1C(=O)NC(C(=O)Nc1ccccc1N1CCOCC1)C(C)C` (stereo unspecified), -0.693.
In turn, `COc1cc(/C=N/N2CCN(c3ccccc3OC)CC2)ccc1O` gave a z-score of -0.23.
With `CC(CCc1ccccc1)NC(=O)C1CCCN(c2nnc(-n3cccc3)s2)C1` (stereo unspecified) the figure was -0.535.
Molecule `CCCCC1(Cc2ccc([N+](=O)[O-])cc2)C(=O)N(c2ccccc2)N(c2ccccc2)C1=O` had a z-score of -0.29.
On to `CCOc1ccc(OCC)c(NC(=O)C2CCCN(S(=O)(=O)c3cnc[nH]3)C2)c1` (stereo unspecified), for which the z-score is 1.47.
As for `CC(C)NC(=O)C1CCN(C(=O)c2ccc(-c3ccccc3)cc2)CC1`, the z-score is -0.137.
Take `Cc1c(Cl)cccc1NC(=O)c1cc(-c2ccccc2O)n[nH]1`: the z-score is -0.0616.
Molecule `CCCC(C)C(=O)Nc1ccc(Cl)cn1` (stereo unspecified) showed a z-score of -0.0543.
Molecule `CC(=O)C1=C(C)NC(=O)NC1c1cccc(O)c1` (stereo unspecified) showed a z-score of -0.149.
For the molecule `Cc1c(Cl)cccc1N1C(=O)CC(NNC(=O)c2cccnc2)C1=O` (stereo unspecified), the z-score is -0.0482.
Molecule `Cc1nn(-c2cccc(Cl)c2)c(Cl)c1/C=N/NC(=O)c1cccs1` came in with a z-score of -0.201.
The molecule `COc1cccc(N2CCN(CC(=O)Nc3nnc(-c4ccccc4)s3)CC2)c1` came in with a z-score of 0.998.
Molecule `Cc1ccccc1C(=O)c1cccn1CC(=O)N1CCCCCC1` returned a z-score of -0.197.
The molecule `CC(C)CNC(=O)c1cccc(NC(=O)C2CCCO2)c1` (stereo unspecified) returned a z-score of -0.0529.
With `CCN=C1NN=C(c2ccc(C)cc2)CS1` the figure was 1.58; with `COc1ccc(-c2nc(SCC(=O)NCc3ccco3)c(-c3ccccc3)[nH]2)cc1OC`, -0.712.
Turning to `Cc1ccc(Oc2nc3ccccc3n3c(C)nnc23)c(C)c1`, the z-score was -0.144.
For the molecule `CC(C)(C)Nc1nc(SCc2ccccc2)nc(N2CCOCC2)n1`, the z-score came to 0.316.
To `CC(C)(C)c1cnnn1-c1ccc(C=O)cc1` belongs 0.185; to `CCOc1cccc(/C=N/NC(=S)Nc2cc(S(=O)(=O)N3CCOCC3)ccc2N2CCOCC2)c1O`, -0.444; to `Cc1ccc(-c2nc(NC(=O)CSc3nnnn3-c3ccccc3)ns2)cc1`, -0.286.
As for `COc1cccc(/C=C/C(=O)OCC(=O)c2cc(C)n(CC3CCCO3)c2C)c1OC` (stereo unspecified), the z-score is -0.205.
`CCOc1ccc(C2C(C#N)=C(N)Oc3cc(C)n(CCN(C)C)c(=O)c32)cc1OCC` (stereo unspecified) came in with a z-score of -0.133.
As for `CC1=C(C(=O)OCc2ccccc2)C(c2cccnc2)n2nnnc2N1` (stereo unspecified), the z-score came to 0.152.
`COc1cccc(OCc2cc(C3Nc4ccccc4C(=O)N3Cc3ccco3)ccc2OC)c1` (stereo unspecified) displayed a z-score of -0.29.
To `COc1ccc(C(=O)O)cc1F` belongs 0.715; to `CSc1nnnn1CCn1nnnc1SC`, 0.0871.
The molecule `CC(=O)c1cccc(NC(=O)c2cc(C(C)C)on2)c1` returned a z-score of -0.333.
As for `CC(Oc1ccc(Cl)cc1)C(=O)N/N=C/c1ccsc1` (stereo unspecified), the z-score was active: 11.6.
The molecule `N#Cc1c(C(F)(F)F)cc(-c2ccc(Cl)cc2)[nH]c1=O` gave a z-score of -2.06.
On to `CCOC(=O)NC1(C(F)(F)F)C(=O)NC(C)=C1C#N` (stereo unspecified), for which the z-score amounted to 0.245.
To `COc1ccc(C(=O)Nc2ccc(N3CCCC3)cc2)cc1` belongs -0.708.
To `Clc1ccccc1CSc1nnc(/C=C/c2ccccc2)o1` belongs -0.356.
For the molecule `CCCCNC(=S)N(C)/N=C/c1ccc2c(c1)OCO2`, the z-score is -0.124.
Regarding `CCCS(=O)(=O)N1CCCC(C(=O)NCCCOC(C)C)C1` (stereo unspecified), the z-score is -0.0692.
With `O=C(CSCc1ccccc1Br)N/N=C/c1ccc2c(c1)OCO2`, the z-score was -0.0558.
The molecule `CC(C)Sc1nc2c(c(=O)n(C)c(=O)n2C)n1C` had a z-score of -0.0211.
`O=C(OCc1cc(=O)n2c(n1)sc1ccccc12)c1ccc(O)cc1` yielded a z-score of -0.289.
The molecule `Cc1[nH]nc2c1C1(CCN(C(=O)c3ccccc3)CC1)C(C#N)=C(N)O2` showed a z-score of -0.486.
Molecule `Cc1cccc(OCCCn2c(=O)sc3ccccc32)c1` gave a z-score of 0.581.
Consider `CCOc1ccc2nc(NCCCO)[nH]c2c1`, for which the z-score amounted to 0.103.
`Cn1c(N)c(C#N)c(C#N)c1-c1ccccc1` had a z-score of -0.345.
To `O=C(OCc1cn(-c2ccc(Cl)c(Cl)c2)nn1)c1ccccc1` belongs 0.116; to `O=C(CCSc1nnc(-c2ccncc2)o1)Nc1ccccc1Cl`, 1.06; to `Cc1ccc(-c2nc3ccccc3s2)cc1S(=O)(=O)N1CCOCC1`, 0.939.
With `CCOC(=O)CNc1c(-c2ccc(O)cc2)nc2ccccn12`, the z-score was -0.16.
Regarding `Cc1ccc(NC(=O)C(C)c2ccc(-c3ccccc3)c(F)c2)cc1` (stereo unspecified), the z-score was -0.0648.
`O=C(CSc1nnc(-c2ccco2)o1)c1ccccc1` displayed a z-score of -0.662.
Consider `Cc1cc(C)c(NC(=O)/C(C#N)=C/c2ccc(OCc3ccc(F)cc3)cc2)c(C)c1`, for which the z-score is 0.258.
As to `CCOc1ccc(-c2nnc3sc(COc4ccc(Cl)cc4)nn23)cc1`, the z-score came to 0.775.
Regarding `CCOC(=O)CN(C(=O)CSc1nnc(C)n1-c1ccccc1)c1ccccc1`, the z-score was -0.223.
The molecule `COC(=O)c1ccccc1NC(=O)CSc1nc(N)cc(N)n1` had a z-score of -0.242.
For the molecule `CCOc1ccccc1Nc1nnc(SCC(=O)Nc2cc(C)on2)s1`, the z-score was -1.24.
With `COc1cc(N)ccc1Cc1ccc(N)cc1OC` the figure was -0.0145; with `Cc1c(NC(=O)c2nn3c(C(F)(F)F)cc(-c4ccccc4)nc3c2Br)c(=O)n(-c2ccccc2)n1C`, -0.429.
`Cn1c(NC(=O)/C=C/c2ccccc2)cc(=O)n(C)c1=O` showed a z-score of -0.0797.
The molecule `CC(=O)n1c2ccccc2c2ccccc21` gave a z-score of -0.165.
On to `COc1ccc(NC(=O)CSc2cccc3cccnc23)c(OC)c1`, for which the z-score was -0.146.
As to `COc1ccc(/C=N\NC(=O)COc2ccc(C(C)(C)C)cc2)cc1Cn1nc(C)cc1C`, the z-score is -0.711.
`Cc1cc(=O)[nH]c(SCc2nc3ccccc3s2)n1` came in with a z-score of 0.284.
On to `Cc1ccc2cc(S(=O)(=O)NCCC(=O)O)ccc2c1`, for which the z-score is -0.123.
The molecule `O=c1[nH]cnc2c1sc(=S)n2-c1ccccc1` had a z-score of 0.0676.
`Cc1ccc2c([N+](=O)[O-])c(C)ccc2n1` yielded a z-score of 0.108.
Molecule `COc1ccc(C2C3=C(CC(C)(C)CC3=O)Oc3ncn(Cc4ccccc4)c(=N)c32)cc1` (stereo unspecified) displayed a z-score of 2.84.
As for `O=C(c1ccc(CS(=O)(=O)c2c(Cl)cccc2Cl)o1)N1CCN(c2ccccn2)CC1`, the z-score was -0.338.
Molecule `COc1ccc(CCN2C(=O)C3CC(C)=C(C)CC3C2=O)cc1OC` (stereo unspecified) came in with a z-score of -0.17.
To `O=C(NCc1ccc2c(c1)OCO2)c1cccc([N+](=O)[O-])c1` belongs -0.0173.
Consider `Cc1ccc(S(=O)(=O)c2c(C)cc(C)nc2Cl)c(C)c1`, for which the z-score is active: 4.41.
As for `CC(OC(=O)c1ccc(S(=O)(=O)N(C)c2ccccc2)cc1)C(=O)NCCC1=CCCCC1` (stereo unspecified), the z-score is -0.207.
In the case of `O=C(NC1CCCCC1)C(c1cccnc1)N(CCc1ccccc1)C(=O)Cc1cccs1` (stereo unspecified), the z-score was -0.356.
`Cc1ccc(-c2csc(NC(=O)COC(=O)c3cccc(S(=O)(=O)N4CCOCC4)c3)n2)cc1` gave a z-score of -0.111.
To `O=C1C2C3CCC(C3NCc3ccccc3)C2C(=O)N1Cc1ccccc1` (stereo unspecified) belongs -0.138; to `O=C(O)C1CCC(=O)N(C2CC2)C1c1ccccc1` (stereo unspecified), 0.0348; to `CCn1c(=O)n(CC)c2cc(S(=O)(=O)Nc3ccccc3C)c(C)cc21`, -0.475.
The molecule `Fc1ccc(-c2nc3c(Cl)cc(C(F)(F)F)cn3c2Cl)cc1` came in with a z-score of -0.181.
With `CCOC(=O)c1c(NC(=O)CN2C(=O)NC(C)(c3ccccc3)C2=O)sc(C)c1C` (stereo unspecified) the figure was -0.178.
Molecule `CCN(CC(=O)Nc1cccc(Br)c1)Cc1nc2ccccc2c(=O)[nH]1` displayed a z-score of -0.321.
Molecule `COc1cc(/C=C(\C#N)c2nc3c(s2)CCCC3)ccc1O` displayed a z-score of -0.204.

The record behind these values is PubChem BioAssay AID488969 (Vanderbilt High Throughput Screening Facility, 2010).
